# Reference: the supplement of paper PMC8728848
# The other results are listed elsewhere or left out.
# B1: Cohesin-mDCIR (Macaca mulatta) (protein)
# chain: GLDDLDAVRIKVDTVNAKPGDTVRIPVRFSGIPSKGIANCDFVYSYDPNVLEIIEIEPGDIIVDPNPDKSFDTAVYPDRKIIVFLFAEDSGTGAYAITKDGVFATIVAKVKEGAPNGLSVIKFVEVGGFANNDLVEQKTQFFDGGVNVGDTTEPATPTTPVTTPTTTDDLDAASFQKYSQLLEKMTTKDLVHTTLECVKKNMTTEETAWSCCPKNWKPFSSNCYFISTESASWQKSEKDCARMEAHLLVINTREEQDFIFQNLQEESAYFVGLSDPEGQRHWQWVDRTPYNESSTFWHPHEPSDPDERCVVLNFRKTPKRWGWNDVHCIVHQRSVCEMMKIHLHHHHHH
# Legend:
# Test in all cases: glycan array binding signal (z-score within array); higher = stronger binding
# Settings in all cases: glycan notation: IUPAC condensed, linker removed
# [1] = target: Gal(b1-4)GlcNAc(b1-3)Gal(b1-4)GlcNAc(b1-6)[Gal(b1-3)]GalNAc
# Procedure, shortened: (§1)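 Arrays were curated from the Consortium for Functional Glycomics database, 3228 in total, and kept only where the protein sequence was available. Binding is expressed as a within-array Z-score. This score was averaged across arrays of the same protein sequence at different concentrations or buffers and across linkers, and negative values can be read as non-binding.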
# [2] = target: Gal(b1-4)GlcNAc(b1-3)Gal(b1-4)[Fuc(a1-3)]GlcNAc(b1-3)Gal(b1-4)[Fuc(a1-3)]GlcNAc
# Procedure, shortened: as §1
# [3] = target: Gal(b1-4)GlcNAc(b1-3)GalNAc
# Procedure, shortened: as §1
# [4] = target: Gal(b1-4)GlcNAc(b1-3)[Fuc(a1-3)GlcNAc(b1-6)]Gal(b1-4)Glc
# Procedure, shortened: as §1
# [5] = target: Gal(b1-4)GlcNAc(b1-3)[Gal(b1-4)GlcNAc(b1-6)]Gal(b1-4)GlcNAc
# Procedure, shortened: as §1
# [6] = target: Gal(b1-4)GlcNAc(b1-3)[GlcNAc(b1-6)]Gal(b1-4)GlcNAc
# Procedure, shortened: as §1
# [7] = target: Gal(b1-4)GlcNAc(b1-6)Gal(b1-4)GlcNAc
# Procedure, shortened: as §1
# [8] = target: Gal(b1-4)GlcNAc(b1-6)GalNAc
# Procedure, shortened: as §1
# [9] = target: Gal(b1-4)GlcNAc(b1-6)[Gal(b1-3)]GalNAc
# Procedure, shortened: as §1
# [10] = target: Gal(b1-4)GlcNAc(b1-6)[Gal(b1-4)GlcNAc(b1-3)]GalNAc
# Procedure, shortened: as §1
# [11] = target: Gal(b1-4)GlcNAc6P
# Procedure, shortened: as §1
# [12] = target: Gal(b1-6)Gal
# Procedure, shortened: as §1
# [13] = target: Gal3S(b1-3)GalNAc
# Procedure, shortened: as §1
# [14] = target: Gal3S(b1-3)GlcNAc
# Procedure, shortened: as §1
# [15] = target: Gal3S(b1-3)[Fuc(a1-4)]GlcNAc
# Procedure, shortened: as §1
# [16] = target: Gal3S(b1-4)Glc
# Procedure, shortened: as §1
# [17] = target: Gal3S(b1-4)Glc6S
# Procedure, shortened: as §1
# [18] = target: Gal3S(b1-4)GlcNAc
# Procedure, shortened: as §1
# [19] = target: Gal3S(b1-4)[Fuc(a1-3)]Glc6S
# Procedure, shortened: as §1
# [20] = target: Gal3S(b1-4)[Fuc(a1-3)]GlcNAc
# Procedure, shortened: as §1
# [21] = target: Gal3S(b1-4)[Fuc(a1-3)]GlcNAc6S
# Procedure, shortened: as §1
# [22] = target: Gal3S4S(b1-4)GlcNAc
# Procedure, shortened: as §1
# [23] = target: Gal3S6S(b1-4)GlcNAc
# Procedure, shortened: as §1
# [24] = target: Gal3S6S(b1-4)GlcNAc6S
# Procedure, shortened: as §1
# [25] = target: Gal4S(b1-4)GlcNAc
# Procedure, shortened: as §1
# [26] = target: Gal4S6S(b1-4)GlcNAc
# Procedure, shortened: as §1
# [27] = target: Gal6P(b1-4)GlcNAc
# Procedure, shortened: as §1
# [28] = target: Gal6S(b1-3)GlcNAc
# Procedure, shortened: as §1
# [29] = target: Gal6S(b1-3)GlcNAc6S
# Procedure, shortened: as §1
# [30] = target: Gal6S(b1-4)Glc
# Procedure, shortened: as §1
# [31] = target: Gal6S(b1-4)Glc6S
# Procedure, shortened: as §1
# [32] = target: Gal6S(b1-4)GlcNAc
# Procedure, shortened: as §1
# [33] = target: Gal6S(b1-4)GlcNAc6S
# Procedure, shortened: as §1
# [34] = target: GalNAc(a1-3)Gal
# Procedure, shortened: as §1
# [35] = target: GalNAc(a1-3)GalNAc
# Procedure, shortened: as §1
# [36] = target: GalNAc(a1-3)GalNAc(b1-3)Gal(a1-4)Gal(b1-4)Glc
# Procedure, shortened: as §1
# [37] = target: GalNAc(a1-3)GalNAc(b1-3)Gal(a1-4)Gal(b1-4)GlcNAc
# Procedure, shortened: as §1
binder,measurement,setting,value
B1,glycan array binding signal (z-score),[1],0.082
same,glycan array binding signal (z-score),[2],-0.37
same,glycan array binding signal (z-score),[3],-0.411
same,glycan array binding signal (z-score),[4],-0.134
same,glycan array binding signal (z-score),[5],-0.43
same,glycan array binding signal (z-score),[6],-0.163
same,glycan array binding signal (z-score),[7],0.023
same,glycan array binding signal (z-score),[8],0.647
same,glycan array binding signal (z-score),[9],-0.356
same,glycan array binding signal (z-score),[10],-0.399
same,glycan array binding signal (z-score),[11],-0.459
same,glycan array binding signal (z-score),[12],-0.36
same,glycan array binding signal (z-score),[13],1.42
same,glycan array binding signal (z-score),[14],0.354
same,glycan array binding signal (z-score),[15],0.116
same,glycan array binding signal (z-score),[16],5.11
same,glycan array binding signal (z-score),[17],1.61
same,glycan array binding signal (z-score),[18],0.532
same,glycan array binding signal (z-score),[19],-0.263
same,glycan array binding signal (z-score),[20],-0.231
same,glycan array binding signal (z-score),[21],1.55
same,glycan array binding signal (z-score),[22],-0.271
same,glycan array binding signal (z-score),[23],-0.105
same,glycan array binding signal (z-score),[24],0.169
same,glycan array binding signal (z-score),[25],-0.226
same,glycan array binding signal (z-score),[26],-0.226
same,glycan array binding signal (z-score),[27],0.112
same,glycan array binding signal (z-score),[28],-0.437
same,glycan array binding signal (z-score),[29],2.23
same,glycan array binding signal (z-score),[30],-0.237
same,glycan array binding signal (z-score),[31],-0.266
same,glycan array binding signal (z-score),[32],-0.374
same,glycan array binding signal (z-score),[33],0.096
same,glycan array binding signal (z-score),[34],0.417
same,glycan array binding signal (z-score),[35],-0.028
same,glycan array binding signal (z-score),[36],-0.325
same,glycan array binding signal (z-score),[37],-0.138
